19 molecules from the supplement of paper PMC12632987 can be followed below.

First the molecules themselves.
B1: GBRAP_35_5616 (protein)
chain: DIDKEVAESLVDLIEALTEAVPELPVDKLVAITNSLVKAVESFVEKHKDDAENLEKLAKALKKLLEAIEKYHGDDPEARKAAEKVKKAAKKAEEAAKKAK
B2: GBRAP_11_2795 (protein)
chain: KKEKLKKLAEVLRKAAEALERLIAAGPEDKEGWEEARKLLEEAEKLAEEAGDEDTAELLKFALEDLEKAQKDPANAQQHLENALATVRVAEGLTLLEIEE
B3: GBRAP_95_7081 (protein)
chain: EEDLEEVVVLADTAIDLYDAGLKEQAARAMRAALDAAEELGWKVADPELFVRLLERFAELALEHFTLEEVERALEAAEAAGAPEELRERLRAAAAALRAR
B4: GBRAP_160_4051 (protein)
chain: EKSKEELLKMVEEARKEVLEVLDEEGAEAALVMFEGLSGEIIMEAAEDPNASDELVDELAKIRDEGVKRLRENRNASKEELKKIIEEAAEEMKEAIKKHY
B5: GBRAP_11_2819 (protein)
chain: MDEVVKELIEVLKKLAEAADKYLKEDVGDEELLKKIEELAKKALELAKKLNDPAVIREAQAILDTVEEAKKDPANREQYVANARAGARTLLANLEEEAEE
B6: GBRAP_117_2572 (protein)
chain: MEKLKKAEEEVRKFVKRVAERLKEMKTLSPEEQAKALAELEKETYEFVKKMIEEVGKDKAIELFDEAIAELDAELYFQVSLLFENAVQRIEEEEKKKEEE
B7: GBRAP_52_6281 (protein)
chain: SEEEVEEVAEEIIRLVEEGKLEEALELARRAVEEFSLEEVLRLGERLIEAIKELPPEKVDLMLEVVDELADALEEKFGEESLADVIEARAAAAAYERLQA
B8: GBRAP_11_2893 (protein)
chain: KKEKLEKLAEKAEEVIKLLKELQEKGAENEELRKKLEEKAKEALELAKESLDESDVELVKYLIELIKEAQKNPETAQQYLDEALATARVLLGQVLLEIEE
B9: GBRAP_74_6507 (protein)
chain: SQELIDALVAAVEAGDWATAIALLEEIFATEDKETRDEALAALKEALEKNKDKFTAEQAEALLDVVIANADKASDEAVDDLSSLLAKIHAEKLAAEAAAA
B10: GBRAP_160_4498 (protein)
chain: SEKLEKAFKELDRIAELTIEAAKEVSPEDKPLIIDAYMGDMIVYLKEEYGISEETEDKALEEADKKVAELKAIPNPTPEQIEAIVNDFTEFLKELLKEES
B11: GBRAP_128_3349 (protein)
chain: LNEEKLEKVRKMAEEMVKADVEEAYKLTKELAEFIGTLNDEEAEAAAEILIEALPKFTVEQLDAIADALREMRPKMDPFKANLLAEVQVEALNEAEELEE
B12: GBRAP_125_3068 (protein)
chain: EMEETLENLAELAKALGFSESDIEEAVEIARKSSIKNTLIAIMMAEGAEEVADLVEKITEEEAKEVLKELVEELKKNPNFTPEEVIKKLKELLEKKIEER
B13: GBRAP_83_6990 (protein)
chain: KEKITVAANGDDIEEAAEIVIDLTKEEGYEVDVEIIATKEDWEKVLEMVERLAEAGIETDITVLAEGITEEEAKEKQKELEEIAKEHGVNINVKVYAIEP
B14: GBRAP_52_6214 (protein)
chain: MEEKIEEAAEKIADALIAGDEEKLVKLVKEAIKEFNLEDLEKIAARMGRILAKRLAGDEERIVALIDKFEEAAKKAGLSEDDALALEGAAEAAAIKELLA
B15: GBRAP_14_3777 (protein)
chain: MEKKKEIIEEHAEEIIELLSELAPEKAEEFRKAVEEVTKETIEEIEKTGDVEKALEEGEERLVERIEEILADEPAEVRARAVAIVRVEMGNALLEIDELE
B16: GBRAP_184_5185 (protein)
chain: MIEEFTIEANNVEELKKKLKEIAEKIKGKKVELYIILKAEKVTVEMAEAAMDELGEIKKAGYATKITVLVEGDVSEEVVDVLVEKGKEAGVNVTIALPEE
B17: GBRAP_95_7056 (protein)
chain: EDGRLAFEDDAEVLDTYVELGDEEAARRAARRAVALFKEIGPVPLPKSISLEAKKLLLEVAAEEADEETQEALLAELLASARTEEEKEALRAHYEALKAA
B18: GBRAP_52_6013 (protein)
chain: MRARLRAFVDEVLALVKAGRLAEAEARLRELVASLDEEELELLIDVIAERAAAAAPEDQEAVWTLAEMLEEQLLAAGVDEALADDLLARVAAALYEAEQR
B19: GBRAP_106_2558 (protein)
chain: SKKETAEKIYKEMLEEAKKEIAEHEAWLAKHRSQLTPEEIRAINQYLRDYLVAKLLRKMIEAGIITKEEAKEILEEVRKRKDLDPLEALEYAGKLVLEKI

Over roughly 4,500 sequences, “median log2 fold change of GCK-ALFA target abundance (FLAG IP / Myc IP barcode read proportion)” has its median near 0.078; the lowest 2% begin near -0.6. The list shows a part of the results.

Sequence of GABARAP, O95166 (O95166 whole entry, the tested form may be a part): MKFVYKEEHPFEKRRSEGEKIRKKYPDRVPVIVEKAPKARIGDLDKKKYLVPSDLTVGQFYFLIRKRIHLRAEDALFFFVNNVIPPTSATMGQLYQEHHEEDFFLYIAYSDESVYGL

The assay has as its target GABARAP, O95166. Description: median log2 fold change of GCK-ALFA target abundance (FLAG IP / Myc IP barcode read proportion) (log2 ratio); each designed protein is fused to an ALFA-tag nanobody in HEK293 cells to bring the named protein to FLAG-tagged glucokinase (GCK); Myc marks an untargeted standard; higher = target protein stabilised (more abundant). As to conditions: target protein: 3xFLAG-MCP-GCK-ALFA reporter; HEK293 landing pad (RPLP). The essentials:
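An ALFA-nanobody-fused binder library was recombined into HEK293 landing-pad cells and induced with 2 μg mL^−1 doxycycline. Cells were transfected with a plasmid expressing a FLAG-tagged target and a Myc-tagged standard. After 48 h, lysates underwent anti-FLAG and anti-Myc immunoprecipitation, and circular RNA barcodes were reverse transcribed, amplified and sequenced. Target abundance is the per-binder median log2 ratio of FLAG to Myc barcode read proportions. Barcodes needed ≥10^−7 proportion in both replicates, binders ≥3 barcodes per replicate, and a 10^−6 pseudocount was added; the two replicates were pooled.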
As to B1, the “median log2 fold change” value came out at 0.12.
B2: the “median log2 fold change” value amounted to 0.102.
Consider B3, for which the “median log2 fold change” value came to 0.285.
For the molecule B4, the “median log2 fold change” value came out at 0.192.
Regarding B5, the “median log2 fold change” value amounted to 0.324.
For B6, the “median log2 fold change” value came out at 0.245.
Consider B7, for which the “median log2 fold change” value is -0.4.
For B8 the value was -0.102; for B9, -0.00895.
Take B10: the “median log2 fold change” value was 0.16.
For B11, the “median log2 fold change” value is 0.0463.
As to B12, the “median log2 fold change” value is -0.064.
Consider B13, for which the “median log2 fold change” value was -0.0785.
B14: the “median log2 fold change” value amounted to 0.00341.
Consider B15, for which the “median log2 fold change” value was 0.25.
For B16 the value was 0.0278.
For B17 the value was 0.226; for B18, -0.123.
Consider B19, for which the “median log2 fold change” value was -0.711.
